# Data reported in the supplement of paper PMC11369174, “Proteome-scale characterisation of motif-based interactome rewiring by disease mutations” (Molecular Systems Biology, 2024).
# The other results are listed elsewhere or left out. Read counts after selection give these values, which scatter widely.
# T1: GEF_Sec7__Q9Y6D5_639_829
# T1 chain: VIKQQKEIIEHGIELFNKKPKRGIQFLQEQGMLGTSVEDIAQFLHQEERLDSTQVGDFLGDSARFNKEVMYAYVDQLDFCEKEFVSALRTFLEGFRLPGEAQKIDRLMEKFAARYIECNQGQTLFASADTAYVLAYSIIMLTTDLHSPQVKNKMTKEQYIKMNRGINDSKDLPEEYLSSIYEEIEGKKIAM
# T2: GGA1_VHS__Q9UJY5_1_157
# T2 chain: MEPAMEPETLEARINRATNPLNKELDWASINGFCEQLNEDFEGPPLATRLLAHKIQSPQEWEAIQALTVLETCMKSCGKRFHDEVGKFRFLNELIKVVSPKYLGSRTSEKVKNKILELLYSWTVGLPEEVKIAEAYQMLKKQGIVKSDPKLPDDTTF
# Columns and labels:
# Experiment in all cases: mean normalised NGS count of phage-displayed peptide after selection on bait (% of reads); baits are purified protein domains named by gene / domain / UniProt id / residues; peptides come from disordered regions of human proteins; higher = stronger enrichment / binding
# GEF_Sec7__Q9Y6D5_639_829 = target: T1, GEF_Sec7__Q9Y6D5_639_829
# [1] = target: GABARAPL2_ATG8__P60520_2_115
# GGA1_VHS__Q9UJY5_1_157 = target: T2, GGA1_VHS__Q9UJY5_1_157
# [2] = target: GABARAPL1_ATG8__Q9H0R8_2_115; conditions: replicate selections in which the peptide was seen: 6
# [3] = target: MAP1LC3B_ATG8__Q9GZQ8_2_119; conditions: replicate selections in which the peptide was seen: 6
# [4] = replicate selections in which the peptide was seen: 6
# [5] = replicate selections in which the peptide was seen: 5
# [6] = replicate selections in which the peptide was seen: 3
# [7] = replicate selections in which the peptide was seen: 2
# [8] = replicate selections in which the peptide was seen: 4
# Chain of GABARAPL2_ATG8__P60520_2_115 (chain, as listed by the source): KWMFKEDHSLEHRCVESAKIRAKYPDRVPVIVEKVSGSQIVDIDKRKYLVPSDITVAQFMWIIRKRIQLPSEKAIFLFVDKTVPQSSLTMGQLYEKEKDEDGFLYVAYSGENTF
binder,measurement,setting,value
KGVWLTETGMALLRNL [KMT2D 1588-1603 mut O14686.E1588K],mean normalised NGS count,GEF_Sec7__Q9Y6D5_639_829; [4],0.412
FEVVMEKDMVGSLAHD [KCNH2 129-144 mut Q12809.P141L],mean normalised NGS count,[1]; [5],0.00702
DVKLLYPVSKYQQDQV [PIK3R1 421-436 wt],mean normalised NGS count,GGA1_VHS__Q9UJY5_1_157; [6],0.124
LTEIRTQYEAMASSNM [GFAP 235-250 mut P14136.K236T],mean normalised NGS count,GEF_Sec7__Q9Y6D5_639_829; [4],0.963
VNKATYASVGDQELLQ [BRCA1 191-206 wt],mean normalised NGS count,GGA1_VHS__Q9UJY5_1_157; [7],0.151
SQEAASSFGDDRLLIE [PCCA 246-261 wt],mean normalised NGS count,GGA1_VHS__Q9UJY5_1_157; [7],0.0266
SYGPDAKLLAGGEDVA [NTRK1 603-618 mut P04629.H604Y],mean normalised NGS count,GGA1_VHS__Q9UJY5_1_157; [6],0.145
KHESGTTAWQLVNSSV [TTN 29707-29722 mut Q8WZ42.R29708H],mean normalised NGS count,[1]; [4],0.00856
RELFEFFANNTTIHGA [SCNN1A 56-71 wt],mean normalised NGS count,[1]; [7],0.0554
DSLDLNADSWDFVAAI [KCND1 583-598 mut Q9NSA2.R592W],mean normalised NGS count,[2],0.141
same,mean normalised NGS count,[1]; [7],0.00153
same,mean normalised NGS count,[3],0.462
QQISAMKLHISQLQHE [DCTN1 1095-1110 mut Q14203.R1101K],mean normalised NGS count,GEF_Sec7__Q9Y6D5_639_829; [4],20.5
EELLSDMKADVTLLPA [CHD5 1869-1884 mut Q12873.R1881L],mean normalised NGS count,GGA1_VHS__Q9UJY5_1_157; [7],0.713
EELLSDMKADVTLLPA [CHD3 1869-1884 mut Q12873.R1881L],mean normalised NGS count,GGA1_VHS__Q9UJY5_1_157; [7],0.713
QDVEDINILSLTDEEP [SOS1 178-193 wt],mean normalised NGS count,GGA1_VHS__Q9UJY5_1_157; [6],0.488
VGDQELLQITPQGTRD [BRCA1 199-214 wt],mean normalised NGS count,GGA1_VHS__Q9UJY5_1_157; [6],0.251
DSPEPVTEINEDSVLI [PALB2 208-223 wt],mean normalised NGS count,GGA1_VHS__Q9UJY5_1_157; [6],0.0815
LAHSDDYVHISLPQAT [TSC1 400-415 wt],mean normalised NGS count,[2],0.108
same,mean normalised NGS count,[1]; [8],0.0166
same,mean normalised NGS count,[3],0.341
IFGSAKASQEADSVLI [TWNK 573-588 mut Q96RR1.N585S],mean normalised NGS count,GGA1_VHS__Q9UJY5_1_157; [7],0.0198
LKEIRTQYEVMASSNM [GFAP 235-250 mut P14136.A244V],mean normalised NGS count,GEF_Sec7__Q9Y6D5_639_829; [4],0.211
TVGLAQQWVQLDQLGM [SPTAN1 2287-2302 mut Q13813.D2295V],mean normalised NGS count,[1]; [5],0.00623
ADIHDFVIILHRVEWA [OCA2 665-680 mut Q04671.E671V],mean normalised NGS count,[1]; [7],0.00462
SVAGHLSTSTTVSSSG [POGZ 60-75 wt],mean normalised NGS count,[1]; [8],1.77
ATYPRLLEGEDAHLSS [KRT16 413-428 mut P02533.R416P],mean normalised NGS count,[1]; [6],0.714
SWEDAALLTEANLPAP [BSCL2 351-366 wt],mean normalised NGS count,GGA1_VHS__Q9UJY5_1_157; [7],0.0105
GQARADESTYVLVAHS [IFIH1 821-836 mut Q9BYX4.R822Q],mean normalised NGS count,[2],0.614
same,mean normalised NGS count,[1]; [5],0.102
VQLDQLGMRMQHNLEQ [SPTAN1 2295-2310 mut Q13813.D2295V],mean normalised NGS count,[1]; [7],0.0166
DMDDVVDADEYLILQQ [EGFR 1006-1021 mut P00533.P1019L],mean normalised NGS count,GGA1_VHS__Q9UJY5_1_157; [6],0.0146
LRAKVAQLQTDYDALK [CEP135 1082-1097 wt],mean normalised NGS count,GEF_Sec7__Q9Y6D5_639_829; [7],17.4
ADIHDFEIILHRVEWA [OCA2 665-680 wt],mean normalised NGS count,[1]; [8],0.0112
VAQNSKQSGEDSKMLV [KMT2C 390-405 mut Q8NEZ4.C394S],mean normalised NGS count,GGA1_VHS__Q9UJY5_1_157; [7],0.0181
REFALEDFTFLRDPWN [SCN3A 176-191 mut P35498.G177E],mean normalised NGS count,[2],0.0141
PDLPLLTALTQDQEFA [ALMS1 224-239 wt],mean normalised NGS count,GGA1_VHS__Q9UJY5_1_157; [6],0.0228
HFVMVEVHHPDSEPDV [WHRN 720-735 mut Q9P202.R728H],mean normalised NGS count,[1]; [6],0.00872
SHGPDAKLLAGGEDVA [NTRK1 603-618 wt],mean normalised NGS count,GGA1_VHS__Q9UJY5_1_157; [6],0.0659
EELLSDMKADVTLLPA [CHD4 1869-1884 mut Q12873.R1881L],mean normalised NGS count,GGA1_VHS__Q9UJY5_1_157; [7],0.713
WSLEDLDLSGEEVQRL [DNAAF2 8-23 mut Q9NVR5.S8W],mean normalised NGS count,[1]; [4],0.164
DDYVHISLPQATVTPP [TSC1 404-419 wt],mean normalised NGS count,[2],2.03
same,mean normalised NGS count,[1]; [4],1.47
same,mean normalised NGS count,[3],0.901
ATYPRLLEGEDAHLSS [KRT14 413-428 mut P02533.R416P],mean normalised NGS count,[1]; [6],0.714
VGDQELLQITPQGTRG [BRCA1 199-214 mut P38398.D214G],mean normalised NGS count,GGA1_VHS__Q9UJY5_1_157; [6],0.0106
DDYVHISLPQATVIPP [TSC1 404-419 mut Q92574.T417I],mean normalised NGS count,[2],80.4
same,mean normalised NGS count,[1]; [4],91.3
same,mean normalised NGS count,[3],26.3
QWYLADIFTTAVDIRW [KCNJ2 66-81 mut P63252.R67W],mean normalised NGS count,[1]; [5],0.0339
DDTLVDSPAVTPVSAR [PKD1 3627-3642 mut P98161.E3632D],mean normalised NGS count,GGA1_VHS__Q9UJY5_1_157; [6],0.123
VTKTSVTLTWDPPLLD [TTN 22890-22905 wt],mean normalised NGS count,GGA1_VHS__Q9UJY5_1_157; [6],0.236
DDSDDDPVLIPGARYQ [DCAF6 655-670 mut Q58WW2.R670Q],mean normalised NGS count,GGA1_VHS__Q9UJY5_1_157; [7],0.0102
APFLPNHPVISLKRNE [GLDC 777-792 wt],mean normalised NGS count,[1]; [7],0.0627
WTPESFIVVEEAGEFS [PTPN22 620-635 mut Q9Y2R2.R620W],mean normalised NGS count,[2],0.235
same,mean normalised NGS count,[1]; [6],0.00865
STISPYYRQSLFRTVL [CRYAA 42-57 wt],mean normalised NGS count,[1]; [6],0.0854
DAFHHQVHDDDLLSSS [EMD 128-143 wt],mean normalised NGS count,GGA1_VHS__Q9UJY5_1_157; [6],0.0599
REFALEDFTFLRDPWN [SCN2A 176-191 mut P35498.G177E],mean normalised NGS count,[2],0.0141
HPDEDDTLVDSPAVTP [PKD1 3623-3638 mut P98161.E3632D],mean normalised NGS count,GGA1_VHS__Q9UJY5_1_157; [6],0.769
DDWIVDDDGIGYVEDG [POLA1 76-91 wt],mean normalised NGS count,[1]; [4],0.0691
EGVWLTETGMALLRNL [KMT2D 1588-1603 wt],mean normalised NGS count,GEF_Sec7__Q9Y6D5_639_829; [4],54.8
VTKTYVTLTWDPPLLD [TTN 22890-22905 mut Q8WZ42.S22894Y],mean normalised NGS count,GGA1_VHS__Q9UJY5_1_157; [7],0.00733
YSAAWVLLAPTWHTSA [CASR 4-19 mut P41180.L13P],mean normalised NGS count,[1]; [6],0.0142
